These are yes or no findings as the source states them, for the method shown. In cells and extracts the contact can be indirect. Some results given as binding are weak or reduced against the parent protein; the word gives no strength.

Protein sequences, listed by entry. Tags and fused reporters are not part of them. Residues count along the entry.
UniProt P11802: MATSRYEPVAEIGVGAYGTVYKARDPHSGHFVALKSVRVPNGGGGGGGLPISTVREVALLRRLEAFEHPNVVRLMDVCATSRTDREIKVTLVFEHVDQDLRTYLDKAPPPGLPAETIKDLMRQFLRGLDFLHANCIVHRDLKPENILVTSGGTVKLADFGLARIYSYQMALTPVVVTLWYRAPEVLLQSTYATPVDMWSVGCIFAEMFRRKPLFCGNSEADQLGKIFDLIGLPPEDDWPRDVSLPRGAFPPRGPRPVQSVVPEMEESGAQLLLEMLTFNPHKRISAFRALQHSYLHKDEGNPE
UniProt P29317, residues 24-976: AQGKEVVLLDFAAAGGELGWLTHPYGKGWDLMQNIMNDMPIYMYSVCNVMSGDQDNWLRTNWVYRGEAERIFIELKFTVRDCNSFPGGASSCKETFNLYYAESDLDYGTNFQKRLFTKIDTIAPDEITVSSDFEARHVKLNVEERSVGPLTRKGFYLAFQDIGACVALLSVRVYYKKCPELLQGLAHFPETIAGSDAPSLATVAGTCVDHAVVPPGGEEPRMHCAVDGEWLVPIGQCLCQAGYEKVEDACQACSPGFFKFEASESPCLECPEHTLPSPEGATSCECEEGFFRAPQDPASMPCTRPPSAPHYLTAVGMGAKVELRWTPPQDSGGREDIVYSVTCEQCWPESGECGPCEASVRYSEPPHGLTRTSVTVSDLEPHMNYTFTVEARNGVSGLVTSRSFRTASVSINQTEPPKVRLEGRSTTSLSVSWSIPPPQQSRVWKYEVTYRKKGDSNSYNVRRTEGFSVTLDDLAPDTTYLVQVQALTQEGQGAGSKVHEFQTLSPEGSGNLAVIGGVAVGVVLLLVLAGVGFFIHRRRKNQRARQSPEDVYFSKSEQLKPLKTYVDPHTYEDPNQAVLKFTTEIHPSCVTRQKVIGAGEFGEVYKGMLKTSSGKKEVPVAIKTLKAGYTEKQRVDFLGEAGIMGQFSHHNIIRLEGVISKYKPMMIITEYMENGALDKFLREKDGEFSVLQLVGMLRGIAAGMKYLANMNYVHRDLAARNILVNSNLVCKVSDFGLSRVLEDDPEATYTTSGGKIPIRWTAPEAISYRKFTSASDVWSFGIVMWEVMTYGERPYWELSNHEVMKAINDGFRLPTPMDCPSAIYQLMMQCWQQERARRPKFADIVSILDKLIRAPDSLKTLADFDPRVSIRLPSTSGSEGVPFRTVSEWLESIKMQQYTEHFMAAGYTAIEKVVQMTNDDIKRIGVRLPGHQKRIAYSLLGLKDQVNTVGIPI
UniProt P01106: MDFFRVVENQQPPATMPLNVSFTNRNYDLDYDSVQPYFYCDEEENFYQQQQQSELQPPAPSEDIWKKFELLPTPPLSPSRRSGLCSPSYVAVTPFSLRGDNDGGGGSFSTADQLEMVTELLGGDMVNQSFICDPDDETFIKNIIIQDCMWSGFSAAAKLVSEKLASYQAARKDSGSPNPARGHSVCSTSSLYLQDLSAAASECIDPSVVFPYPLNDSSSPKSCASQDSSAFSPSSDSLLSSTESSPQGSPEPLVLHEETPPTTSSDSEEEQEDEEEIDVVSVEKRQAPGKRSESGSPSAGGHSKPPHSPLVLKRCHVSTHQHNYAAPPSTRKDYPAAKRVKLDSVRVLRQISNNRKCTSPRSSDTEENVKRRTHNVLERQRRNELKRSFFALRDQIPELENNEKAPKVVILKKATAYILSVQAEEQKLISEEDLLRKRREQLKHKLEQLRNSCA
UniProt P31749: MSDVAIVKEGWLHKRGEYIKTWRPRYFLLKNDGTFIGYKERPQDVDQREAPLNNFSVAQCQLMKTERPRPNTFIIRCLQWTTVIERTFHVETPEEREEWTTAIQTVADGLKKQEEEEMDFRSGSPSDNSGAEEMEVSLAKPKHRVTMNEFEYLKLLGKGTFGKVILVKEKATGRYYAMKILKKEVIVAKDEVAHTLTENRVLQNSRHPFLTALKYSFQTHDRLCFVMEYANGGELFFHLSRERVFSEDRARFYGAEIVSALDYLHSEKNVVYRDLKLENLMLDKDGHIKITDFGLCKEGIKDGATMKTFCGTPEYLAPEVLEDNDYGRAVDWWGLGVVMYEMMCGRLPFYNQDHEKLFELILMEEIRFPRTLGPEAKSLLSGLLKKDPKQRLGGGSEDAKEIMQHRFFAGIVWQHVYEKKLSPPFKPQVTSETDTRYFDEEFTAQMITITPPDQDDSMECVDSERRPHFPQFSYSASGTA
UniProt Q00534: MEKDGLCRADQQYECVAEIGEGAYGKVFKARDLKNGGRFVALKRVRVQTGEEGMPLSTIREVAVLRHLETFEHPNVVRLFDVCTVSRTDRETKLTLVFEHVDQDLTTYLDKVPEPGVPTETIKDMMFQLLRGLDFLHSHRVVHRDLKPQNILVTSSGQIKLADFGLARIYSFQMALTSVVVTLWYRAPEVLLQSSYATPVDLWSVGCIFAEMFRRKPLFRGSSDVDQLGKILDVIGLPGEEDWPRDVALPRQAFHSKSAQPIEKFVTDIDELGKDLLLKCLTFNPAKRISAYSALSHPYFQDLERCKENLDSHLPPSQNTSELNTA
UniProt P42772: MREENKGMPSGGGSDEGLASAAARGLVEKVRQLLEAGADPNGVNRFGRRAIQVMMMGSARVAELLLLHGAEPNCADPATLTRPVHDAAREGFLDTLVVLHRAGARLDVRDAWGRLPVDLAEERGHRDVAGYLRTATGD
UniProt Q12778: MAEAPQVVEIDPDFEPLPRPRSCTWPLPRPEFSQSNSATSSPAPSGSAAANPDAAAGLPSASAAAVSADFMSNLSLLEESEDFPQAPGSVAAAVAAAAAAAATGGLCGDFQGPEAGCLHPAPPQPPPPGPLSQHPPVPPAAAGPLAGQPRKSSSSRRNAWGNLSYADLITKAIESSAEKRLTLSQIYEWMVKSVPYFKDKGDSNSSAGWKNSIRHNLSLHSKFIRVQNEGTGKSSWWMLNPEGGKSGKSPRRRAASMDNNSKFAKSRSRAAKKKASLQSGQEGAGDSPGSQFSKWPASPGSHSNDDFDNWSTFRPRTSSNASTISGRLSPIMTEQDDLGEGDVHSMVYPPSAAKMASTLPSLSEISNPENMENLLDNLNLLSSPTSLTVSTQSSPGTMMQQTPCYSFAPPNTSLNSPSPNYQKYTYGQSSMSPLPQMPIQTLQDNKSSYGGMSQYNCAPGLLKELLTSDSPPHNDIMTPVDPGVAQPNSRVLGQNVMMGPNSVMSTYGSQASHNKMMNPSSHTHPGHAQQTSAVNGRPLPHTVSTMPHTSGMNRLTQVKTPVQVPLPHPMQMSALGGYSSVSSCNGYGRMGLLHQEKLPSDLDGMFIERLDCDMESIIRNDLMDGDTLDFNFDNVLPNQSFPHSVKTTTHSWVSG
UniProt P35240: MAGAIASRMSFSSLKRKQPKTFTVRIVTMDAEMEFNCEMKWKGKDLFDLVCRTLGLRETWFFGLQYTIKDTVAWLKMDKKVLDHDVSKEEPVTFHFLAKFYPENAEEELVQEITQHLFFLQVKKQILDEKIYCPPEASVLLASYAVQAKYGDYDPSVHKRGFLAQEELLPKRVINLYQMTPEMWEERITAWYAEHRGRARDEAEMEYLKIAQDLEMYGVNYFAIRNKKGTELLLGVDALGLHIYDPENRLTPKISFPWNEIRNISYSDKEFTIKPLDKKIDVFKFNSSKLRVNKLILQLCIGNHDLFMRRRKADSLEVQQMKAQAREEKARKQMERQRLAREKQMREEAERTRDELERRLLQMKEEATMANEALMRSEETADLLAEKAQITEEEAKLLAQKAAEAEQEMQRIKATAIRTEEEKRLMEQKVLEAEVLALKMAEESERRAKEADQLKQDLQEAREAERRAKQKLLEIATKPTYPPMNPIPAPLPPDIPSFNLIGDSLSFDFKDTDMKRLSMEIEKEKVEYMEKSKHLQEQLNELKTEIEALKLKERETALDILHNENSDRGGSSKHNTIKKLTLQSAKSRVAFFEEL
UniProt Q9BZ95, residues 1-347: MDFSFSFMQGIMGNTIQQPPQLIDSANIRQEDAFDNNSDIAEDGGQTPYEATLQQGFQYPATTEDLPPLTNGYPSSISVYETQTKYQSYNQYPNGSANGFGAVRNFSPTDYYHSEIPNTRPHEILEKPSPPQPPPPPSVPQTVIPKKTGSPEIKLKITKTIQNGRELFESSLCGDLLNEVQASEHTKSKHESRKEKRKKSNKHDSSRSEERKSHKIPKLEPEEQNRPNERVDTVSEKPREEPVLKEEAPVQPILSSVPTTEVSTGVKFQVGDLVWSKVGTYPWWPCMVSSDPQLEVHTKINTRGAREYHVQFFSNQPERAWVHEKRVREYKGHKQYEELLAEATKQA
UniProt P16234, residues 24-1089: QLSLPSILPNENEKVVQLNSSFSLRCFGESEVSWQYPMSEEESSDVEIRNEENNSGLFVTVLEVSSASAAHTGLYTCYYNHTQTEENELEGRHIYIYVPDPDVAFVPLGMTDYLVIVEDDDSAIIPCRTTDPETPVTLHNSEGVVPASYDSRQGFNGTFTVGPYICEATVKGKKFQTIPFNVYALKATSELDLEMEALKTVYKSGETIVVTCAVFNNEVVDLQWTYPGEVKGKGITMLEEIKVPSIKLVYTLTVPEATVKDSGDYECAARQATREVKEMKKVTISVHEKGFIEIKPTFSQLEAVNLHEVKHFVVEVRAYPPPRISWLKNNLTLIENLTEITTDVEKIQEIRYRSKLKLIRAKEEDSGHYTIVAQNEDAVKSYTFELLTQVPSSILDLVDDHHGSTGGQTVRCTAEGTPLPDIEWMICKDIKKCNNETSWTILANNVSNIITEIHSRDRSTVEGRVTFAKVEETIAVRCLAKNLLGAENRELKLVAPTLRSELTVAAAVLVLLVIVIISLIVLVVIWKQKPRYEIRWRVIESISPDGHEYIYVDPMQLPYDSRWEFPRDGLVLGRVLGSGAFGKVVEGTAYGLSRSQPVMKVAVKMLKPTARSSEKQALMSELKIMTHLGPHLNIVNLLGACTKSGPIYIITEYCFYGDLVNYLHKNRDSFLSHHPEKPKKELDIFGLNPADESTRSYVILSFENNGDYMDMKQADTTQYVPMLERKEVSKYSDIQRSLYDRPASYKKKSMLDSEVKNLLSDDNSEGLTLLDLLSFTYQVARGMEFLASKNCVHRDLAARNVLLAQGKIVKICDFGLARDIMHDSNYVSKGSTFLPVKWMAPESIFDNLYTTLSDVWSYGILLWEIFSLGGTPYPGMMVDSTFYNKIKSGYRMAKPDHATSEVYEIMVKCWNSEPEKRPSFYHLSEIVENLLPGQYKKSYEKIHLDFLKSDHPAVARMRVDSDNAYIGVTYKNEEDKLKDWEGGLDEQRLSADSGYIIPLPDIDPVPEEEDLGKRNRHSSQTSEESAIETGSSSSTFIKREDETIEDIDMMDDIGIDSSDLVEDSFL
UniProt Q15796: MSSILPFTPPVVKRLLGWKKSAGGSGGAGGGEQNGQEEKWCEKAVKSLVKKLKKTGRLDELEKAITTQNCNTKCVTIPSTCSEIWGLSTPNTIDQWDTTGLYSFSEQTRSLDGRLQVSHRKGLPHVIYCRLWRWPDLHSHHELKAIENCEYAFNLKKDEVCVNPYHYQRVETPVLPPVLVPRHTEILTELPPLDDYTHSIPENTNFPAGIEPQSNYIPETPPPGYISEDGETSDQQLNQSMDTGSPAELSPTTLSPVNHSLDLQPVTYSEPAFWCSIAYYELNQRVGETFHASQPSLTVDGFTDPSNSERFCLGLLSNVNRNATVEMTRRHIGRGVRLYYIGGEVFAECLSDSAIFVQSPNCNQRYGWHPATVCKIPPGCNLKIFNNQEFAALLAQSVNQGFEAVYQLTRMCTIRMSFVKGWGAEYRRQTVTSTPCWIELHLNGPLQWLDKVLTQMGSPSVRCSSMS
UniProt P63104: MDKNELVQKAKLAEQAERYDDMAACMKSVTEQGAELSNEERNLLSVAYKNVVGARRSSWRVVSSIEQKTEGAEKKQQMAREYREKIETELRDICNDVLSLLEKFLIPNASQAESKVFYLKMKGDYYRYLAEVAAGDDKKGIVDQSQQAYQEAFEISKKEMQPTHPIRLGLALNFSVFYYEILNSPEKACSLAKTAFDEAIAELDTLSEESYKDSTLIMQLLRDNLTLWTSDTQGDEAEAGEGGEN

For assay [1], the target named is GST-CDK4 (human) (UniProt P11802). Nature of the assay: pull-down; GST-affinity pull-down from lysates of transfected HEK293T cells; 1% NP-40 buffer, glutathione-conjugated beads 2 h at 4 °C, three washes, western blot; in Figure 5i the cells were treated with palbociclib.
Assay [2] addresses CDK4 (human) (UniProt P11802). The assay is described as follows: FRET or BRET; TR-FRET high-throughput screen, 384-well; GST- and Venus-Flag-fusions co-transfected in H1299 cells, whole cell lysate, anti-GST-terbium antibody, 4 °C; both fusion orientations, triplicates, three rounds; positives by FOC, P and q values against GST-only and Venus-only controls.
The target of assay [3] is T1, TSC1 (human) (UniProt Q92574).
T1 sequence: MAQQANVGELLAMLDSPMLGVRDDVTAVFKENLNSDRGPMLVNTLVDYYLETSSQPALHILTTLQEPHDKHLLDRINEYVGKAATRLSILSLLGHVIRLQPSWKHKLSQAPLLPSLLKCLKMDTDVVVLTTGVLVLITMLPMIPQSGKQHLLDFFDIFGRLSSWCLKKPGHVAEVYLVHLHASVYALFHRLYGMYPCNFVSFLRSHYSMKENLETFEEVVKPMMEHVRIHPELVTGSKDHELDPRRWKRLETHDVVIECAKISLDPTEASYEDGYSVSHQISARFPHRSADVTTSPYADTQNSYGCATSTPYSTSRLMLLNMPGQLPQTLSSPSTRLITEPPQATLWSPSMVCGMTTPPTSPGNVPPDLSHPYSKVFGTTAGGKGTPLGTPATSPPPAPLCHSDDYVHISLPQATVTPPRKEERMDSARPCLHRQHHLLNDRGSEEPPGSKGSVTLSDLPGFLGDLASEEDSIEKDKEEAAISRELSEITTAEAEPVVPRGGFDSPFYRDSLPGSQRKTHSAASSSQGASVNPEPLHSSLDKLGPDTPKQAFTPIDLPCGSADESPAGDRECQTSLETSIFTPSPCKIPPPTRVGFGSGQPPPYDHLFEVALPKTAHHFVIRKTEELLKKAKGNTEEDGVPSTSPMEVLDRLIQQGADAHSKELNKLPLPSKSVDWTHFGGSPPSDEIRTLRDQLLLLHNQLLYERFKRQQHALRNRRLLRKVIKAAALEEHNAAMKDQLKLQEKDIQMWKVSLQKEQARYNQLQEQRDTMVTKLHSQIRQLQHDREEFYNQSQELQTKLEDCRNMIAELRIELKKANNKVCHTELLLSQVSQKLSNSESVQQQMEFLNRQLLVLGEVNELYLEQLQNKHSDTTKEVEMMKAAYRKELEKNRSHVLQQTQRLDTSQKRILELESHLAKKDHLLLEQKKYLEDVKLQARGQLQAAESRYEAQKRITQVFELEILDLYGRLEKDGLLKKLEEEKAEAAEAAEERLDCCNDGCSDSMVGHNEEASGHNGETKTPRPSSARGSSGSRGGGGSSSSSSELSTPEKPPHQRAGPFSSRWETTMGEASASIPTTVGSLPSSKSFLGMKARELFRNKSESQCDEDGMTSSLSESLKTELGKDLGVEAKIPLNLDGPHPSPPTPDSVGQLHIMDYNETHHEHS
The description is as above.

The target in assay [4] is T2, STK11 (human) (UniProt Q15831).
T2 sequence: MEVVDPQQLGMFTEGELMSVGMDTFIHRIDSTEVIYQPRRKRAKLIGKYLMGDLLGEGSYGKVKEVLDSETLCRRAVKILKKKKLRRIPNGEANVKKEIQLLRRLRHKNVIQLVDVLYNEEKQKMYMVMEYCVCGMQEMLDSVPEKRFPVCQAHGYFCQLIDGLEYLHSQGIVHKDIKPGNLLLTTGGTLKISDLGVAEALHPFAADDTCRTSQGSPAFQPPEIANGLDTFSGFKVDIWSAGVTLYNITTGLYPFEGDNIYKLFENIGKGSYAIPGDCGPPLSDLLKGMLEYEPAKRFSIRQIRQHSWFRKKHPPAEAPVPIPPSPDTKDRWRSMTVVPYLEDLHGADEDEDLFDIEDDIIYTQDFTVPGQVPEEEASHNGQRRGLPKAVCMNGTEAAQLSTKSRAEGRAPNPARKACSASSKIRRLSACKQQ
Described as above.

The target in assay [5] is EPHA2 (human) (UniProt P29317). Described as above.
In assay [6] the target is MYC (human) (UniProt P01106). The description is as above.
Assay [7] addresses HRAS (human) (UniProt P01112). The assay is described as above.
In assay [8] the target is T3, RASSF1 (human) (UniProt Q9NS23).
T3 sequence: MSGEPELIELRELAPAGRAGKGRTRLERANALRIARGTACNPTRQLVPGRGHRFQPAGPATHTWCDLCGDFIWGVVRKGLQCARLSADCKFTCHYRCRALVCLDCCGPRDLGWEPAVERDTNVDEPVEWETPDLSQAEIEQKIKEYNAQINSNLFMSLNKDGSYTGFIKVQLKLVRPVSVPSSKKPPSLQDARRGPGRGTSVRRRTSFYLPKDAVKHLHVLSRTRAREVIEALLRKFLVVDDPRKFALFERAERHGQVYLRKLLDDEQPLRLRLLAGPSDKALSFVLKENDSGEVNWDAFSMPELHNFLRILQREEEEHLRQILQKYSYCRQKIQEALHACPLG
The assay is described as above.

The target of assay [9] is MYC (human) (UniProt P01106). The assay is described as follows: pull-down; GST-affinity pull-down from lysates of transfected HEK293T cells; 1% NP-40 buffer, glutathione-conjugated beads 2 h at 4 °C, three washes, western blot; in Figure 5i the cells were treated with palbociclib. For orientation: In western blotting, separated proteins are transferred to a membrane and probed.

The target of assay [10] is T4, RB1 (human) (UniProt P06400).
T4 sequence: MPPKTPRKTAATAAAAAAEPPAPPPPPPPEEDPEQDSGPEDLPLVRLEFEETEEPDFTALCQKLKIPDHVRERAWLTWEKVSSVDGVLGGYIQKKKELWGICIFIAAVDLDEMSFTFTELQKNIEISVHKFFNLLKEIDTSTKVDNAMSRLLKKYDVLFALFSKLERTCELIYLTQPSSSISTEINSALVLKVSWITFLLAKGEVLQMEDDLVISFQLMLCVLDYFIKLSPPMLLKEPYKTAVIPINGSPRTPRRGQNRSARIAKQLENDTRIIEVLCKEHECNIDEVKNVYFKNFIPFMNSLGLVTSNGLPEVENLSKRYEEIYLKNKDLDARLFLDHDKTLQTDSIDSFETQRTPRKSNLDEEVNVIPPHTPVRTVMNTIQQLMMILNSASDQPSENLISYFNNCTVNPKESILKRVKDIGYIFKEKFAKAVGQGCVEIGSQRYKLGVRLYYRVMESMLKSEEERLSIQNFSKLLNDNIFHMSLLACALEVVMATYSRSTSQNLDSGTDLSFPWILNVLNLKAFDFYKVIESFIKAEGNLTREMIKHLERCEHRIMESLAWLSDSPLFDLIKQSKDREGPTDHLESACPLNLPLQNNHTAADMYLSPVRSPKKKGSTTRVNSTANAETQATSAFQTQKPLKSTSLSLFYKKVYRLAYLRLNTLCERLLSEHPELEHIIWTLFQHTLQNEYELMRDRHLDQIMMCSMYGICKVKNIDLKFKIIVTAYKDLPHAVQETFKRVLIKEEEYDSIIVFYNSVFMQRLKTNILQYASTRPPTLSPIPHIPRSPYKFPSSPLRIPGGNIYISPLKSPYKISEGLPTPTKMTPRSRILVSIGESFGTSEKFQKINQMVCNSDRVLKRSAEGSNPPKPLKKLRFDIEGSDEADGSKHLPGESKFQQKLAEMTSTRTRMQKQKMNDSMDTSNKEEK
Nature of the assay: FRET or BRET; TR-FRET high-throughput screen, 384-well; GST- and Venus-Flag-fusions co-transfected in H1299 cells, whole cell lysate, anti-GST-terbium antibody, 4 °C; both fusion orientations, triplicates, three rounds; positives by FOC, P and q values against GST-only and Venus-only controls. (Bioluminescence resonance energy transfer reports proximity on the nanometre scale.)

On to AKT1 (from UniProt P31749 1-480), for which the binding entry in [1], in [2] and in assay [3] was “binds” in each case.
For CDK6 (from UniProt Q00534 1-326), the binding result in assay [4] is given as “binds”.
On to CDKN2B (from UniProt P42772 1-138), for which the binding entry in assay [5] was “binds”.
With FOXO1 (from UniProt Q12778 1-655), the binding result in [3] is reported as “no binding”.
As to GCN5 (from UniProt Q92830 1-837), the binding entry in assay [6] is “binds”.
MAPK14 (from UniProt Q16539 1-360): in assay [7], the binding result was “no binding”.
Consider NF2 (from UniProt P35240 1-595), for which the binding result in assay [1], in [2] and in assay [8] was “binds” in each case.
Turning to “NSD3-s (1–347) (from UniProt Q9BZ95 1-347) (domain or fragment)”, the binding entry in [9] is reported as “no binding”.
For the substance PDGFRA (from UniProt P16234 24-1089), the binding result in assay [1] and in assay [2] was “binds” each time.
For the substance SMAD2 (from UniProt Q15796 1-467), the values for the binding entry in [6] and in [10] were “binds” and “no binding”, respectively.
SMARCA4 (from UniProt P51532 1-1647): in assay [8], the binding result is “binds”.
For YWHAZ (from UniProt P63104 1-245), in assay [3], the binding result is recorded as “no binding”.

For the origin of these results see article PMC5316855.
